Experimental data taken from the supplement of paper PMC3334620.
The full ranking holds about 33,000 sequences; the median of “E-score (-0.5 to 0.5)” is about -0.017, and the highest 2% start at about 0.3. Some of the results follow.

These sequences were tested against T1, Sut1 (UniProt P53032) (assay: PBM E-score (8-mer binding enrichment) (E-score (-0.5 to 0.5)); higher = stronger / more preferred TF binding; most listed sequences are background and not binding sites). Settings: protein concentration: 200 nM; construct: GST-full length.
T1 sequence: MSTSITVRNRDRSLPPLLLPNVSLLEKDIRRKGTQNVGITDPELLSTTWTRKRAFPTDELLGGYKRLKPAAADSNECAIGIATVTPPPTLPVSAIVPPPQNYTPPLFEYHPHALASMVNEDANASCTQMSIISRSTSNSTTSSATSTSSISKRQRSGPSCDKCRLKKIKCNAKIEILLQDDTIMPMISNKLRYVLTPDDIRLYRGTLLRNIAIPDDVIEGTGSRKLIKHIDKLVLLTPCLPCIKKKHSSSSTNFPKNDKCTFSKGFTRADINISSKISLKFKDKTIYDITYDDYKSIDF
Procedure, shortened: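 Masliner-normalised scans of fluorescent anti-GST signal were the basis for scoring. That signal came from GST-tagged yeast transcription factors applied at about 100-200 nM to double-stranded universal all-10-mer Agilent arrays on fresh or once-stripped slides. Each ungapped eight-base word, pooled with its reverse complement, received an E-score from the Universal PBM Analysis Suite.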

Sequence	PBM E-score
GTTTCCTA	0.0631
ATCCTAAG	-0.175
ACTTCAGC	-0.142
GATAGGAA	-0.0386
GGATTACC	0.0282
TGTGACAA	0.0467
CTTACCCA	-0.0173
TTCCAGAA	0.139
AGGATCAG	-0.268
GAGATACA	0.255
CTGCAATA	0.0791
AGAACGCT	-0.0146
GACCTACA	0.0326
AAGAAATT	0.313
CCAATACG	-0.033
GACACGGA	0.296
AAGCGTGG	-0.0235
GCTCTTAC	0.132
CCGCGGTA	0.0295
CAACGAGA	-0.001
TGCTCAAA	0.0837
GAGGGTCA	-0.207
GTACATGA	0.103
CAACGAGG	-0.11
CATAAGCC	-0.0821

Sequence	PBM E-score
CACCACGC	-0.276
TCTAGTCA	0.0751
CTGGCATA	-0.042
CGTATGCA	-0.0505
AGAGAGGC	-0.143
AAAAGAGT	0.0645
GAAAGCTC	-0.0607
CAGCCAGA	-0.0176
AACATGCT	0.0528
GTAACGAA	-0.00198
ACCGATTG	0.147
TAGACAGA	0.134
CGGGGCCC	-0.106
AATTGTCA	0.121
CAATATTG	0.051
AGATTCAA	0.219
CCCATACG	-0.204
ACAGTTGG	-0.132
AAGCATAG	-0.196
AGAGTTAC	-0.117
CATTATAA	0.126
GCCTAGTA	-0.0758
GATGGAAC	-0.0852
AATGTTTG	0.175
AATGCTCT	0.0869

Sequence	PBM E-score
CCCTCCTA	-0.207
GCAAATAC	0.0477
GGGGTCGA	-0.135
ATTATCGA	0.021
CATCATAC	0.253
GACTGAGC	-0.342
ACGAAGCA	0.0787
ATATCGAG	0.0296
TCAAGCGA	-0.113
CGCGACGC	-0.169
CGTACTCA	0.0162
CCGGCGCA	0.132
CAAGACAC	-0.00016
GATTACAA	0.156
GGGACAGA	-0.387
ATTGGTCG	0.0598
AGCCGGTA	-0.0773
CGCTGTGA	-0.225
CCCCCCAG	-0.451
GGCTTGAC	-0.0111
ACAATGAA	0.13
ATGTGTAG	0.0251
GCGATCGC	0.0478
GGAGGTAA	0.0337
CTCGTGTA	-0.176

Sequence	PBM E-score
AGAGCTCA	-0.109
ACCTCATA	-0.0352
CCTCGCGC	-0.262
AGTGCAAT	-0.0563
ATCTATGA	0.118
AGGCCCCG	-0.292
ATCTAGAG	-0.0117
CGATTTGC	0.0539
CCTAGACA	-0.165
ATACCTGA	-0.0244
CTCATAAA	0.117
CGGTCCTC	-0.0479
CAGGTGAC	-0.157
GGTCATGA	-0.112
CGAAACTA	0.121
ACATCCCG	0.0895
CTTGCGTA	0.106
AGACGCGA	0.0113
AAGTACTG	-0.114
GTGCCCGA	-0.183
ACACGCCG	-0.0829
AAACACAA	0.197
AGCAAGAC	-0.149
AGAGTGAG	0.0836
CACCGACA	-0.0992

Sequence	PBM E-score
AAAAGTAG	0.0841
AACGGGTA	0.0141
CGGAGGAC	0.102
ACTTGTCA	0.0978
CGTCCAAA	0.144
AACTTGTG	0.0746
AGAATCTA	0.0902
ATGGGAAG	-0.0793
AAACGATA	0.027
ATTTTAGG	0.113
CACACCTC	-0.169
CCAATAGC	-0.0939
CTGGACAG	-0.205
ACGTTCCC	-0.164
ATTAATTG	0.187
ACAGCATC	-0.0972
AATGAGGA	-0.0127
ATAGCGTA	-0.0334
CTTGCAAG	0.0222
CTGACGAC	-0.199
TACCCTGA	-0.244
ATATGTTA	0.207
ATTGTAAC	0.0804
ACATGACG	0.00405
CCACGAAC	0.093

Sequence	PBM E-score
GCAGGTCC	0.0446
CCAGGACG	-0.223
CACCACTA	0.116
GTAGATAC	0.0115
CAGGACCC	-0.231
CGCAGTGA	-0.0592
TCAAAGGA	-0.0285
ATGTTATG	0.211
ACCACAGT	-0.0605
CGCAATGC	-0.19
CTTAGTTC	0.0859
ACCGTTCT	-0.0194
GAATCTAC	-0.104
GAGTGCAA	0.144
AAGACGGC	-0.0607
CCCCTAGG	-0.174
CGAGAACC	-0.0514
GACAGTAC	0.0792
GAGAGCAC	-0.0549
AAGCTGAG	-0.0853
CCAGACTC	-0.166
TATAGTCA	0.135
GTATGGTA	-0.0717
CTAAGAGA	0.046
ACTAAAAG	0.214

Sequence	PBM E-score
GACACGCA	-0.0106
GCTAGATA	-0.0727
AGATCGCG	-0.0343
GCAGAAAC	-0.0505
AAGTTACG	0.179
GAGACCCC	-0.146
ATTTCCTG	0.169
GGACAGCA	-0.0931
CTTTTGCC	0.0834
CGAATGAA	0.0181
AGGCAAGC	-0.135
ATATACTG	0.179
ATTTTTTC	0.262
CATGATAC	0.119
CGTCCCTA	-0.135
CTGGCTGC	-0.214
CGAGATTC	0.0663
CCTGGTCG	-0.228
CCAAGTAG	-0.189
AAAGTGTC	0.123
ACTATGGA	0.0185
GATAAAAA	0.263
